# Data taken from PubChem BioAssay AID1345082 (National Center for Advancing Translational Sciences (NCATS), 2018).
# In all, about 94,000 compounds went through this assay and about 4,000 (4.3%) were called active. Inconclusive means that the source gave no clear call. Such entries were picked first, then a sample of the others. Calls follow the shape of the dose curve; as a rule, active = well fitted inhibition curve with a large enough effect; inconclusive = small, poorly fitted or top-dose-only effect; inactive = no such curve, though single readings can be large or run the other way. Potencies of inconclusive entries are doubtful fits and often do not repeat.
# Test: Cytotoxic Profiling in NIH 3T3 Cell Line of Diverse Libraries Using Quantitative High-Throughput Screening; also: nearly all actives have a fitted effect of over 55% in size
# Conditions: NIH 3T3 viability, CellTiter-Glo ATP luminescence, 48-72 h; series mostly up to 96.7 µM
# In short: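 ATP-dependent luminescence (CellTiter-Glo) served as the viability signal for NIH 3T3 cells treated with compound for 48 or 72 hr at 37 °C.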
# Potency is read from the fitted curve at half-maximal effect; tags tell the direction and shape of the fitted curve.
row,Compound,Potency
1,CCc1ccccc1NC(=O)Cn1c(N2CCOCC2)nc(COC)cc1=O,inactive
2,c1ccc(-c2ccccc2Nc2cnc3ccc(N4CCOCC4)nn23)cc1,"inconclusive: 44.7 µM [inhibitor, partial curve, poor fit]"
3,Cc1ccc2c(C(=O)NCc3ccc(Cl)cc3)cnn2c1,"inconclusive: 79.4 µM [inhibitor, partial curve]"
4,O=C(NC1CCN(c2cc(-c3ccc(F)cc3)[nH]n2)C1)c1cccc(OC(F)(F)F)c1 (stereo not given),"inconclusive: 44.7 µM [inhibitor, partial curve, poor fit]"
5,Cc1cc(C(=O)NC2CCCC2)c2c(C3CCCN3)noc2n1 (stereo not given),"inconclusive: 89.1 µM [inhibitor, single point]"
6,CNC(=O)c1cc(C2CC2)nc2onc(C3CCCN3[S+](=O)([O-])c3ccccc3)c12 (stereo not given),inactive
7,O=C(Cc1cccc(Cl)c1)N1CCC(c2nn(-c3ccc(Cl)cc3)c(=O)[nH]2)CC1,active: 44.7 µM
8,O=C(NCCCc1ccccc1)c1n[nH]c2c1CN(C(=O)c1cccc(Cl)c1)CC2,active: 35.5 µM
9,COCC1CN(C)CC12CCN(S(=O)(=O)c1cc(F)cc(F)c1)CC2 (stereo not given),inactive
10,COc1ccc(CN2C[C@H]3CN(Cc4nccs4)CCN3C2=O)cc1,"inconclusive: 89.1 µM [inhibitor, single point]"
11,COc1ccc([S+](=O)([O-])c2nnn3c2nc(N2CCCCC2)c2ccccc23)cc1,"inconclusive: 5.01 µM [inhibitor, partial curve, poor fit]"
12,Cc1ccc(C2Cn3nnc(C(=O)N4CCC(C(=O)Nc5ccc(F)c(Cl)c5)CC4)c3CO2)cc1 (stereo not given),"inconclusive: 44.7 µM [inhibitor, partial curve, poor fit]"
13,CCN1c2cc(C(=O)NCc3ccc(F)cc3)ccc2C(=O)N2CCCCC21 (stereo not given),"inconclusive: 44.7 µM [inhibitor, partial curve, poor fit]"
14,CNC(=O)c1cccc(-c2cnc(Nc3ccc4c(c3)OCCO4)c3c2CCO3)c1,"inconclusive: 56.2 µM [inhibitor, partial curve, poor fit]"
15,Cc1ccccc1CN1CCN2C(=O)N(C3CCCCC3)C[C@H]2C1,"inconclusive: 112 µM [inhibitor, partial curve, poor fit]"
16,CCC(c1ccccn1)N(C)C(=O)c1cc(COc2ccccc2)[nH]n1 (stereo not given),"inconclusive: 44.7 µM [inhibitor, partial curve]"
17,COc1ccccc1Nc1ccnc(N2CCC(NC(=O)C(C)(C)C)CC2)n1,"inconclusive: 28.2 µM [inhibitor, partial curve, poor fit]"
18,CCOc1ccc(C2Cn3nnc(-c4nc(-c5ccc(SC)cc5)no4)c3CO2)cc1 (stereo not given),inactive
19,CN(Cc1ccccc1F)C1CCc2ccccc21 (stereo not given),inactive
20,CN(Cc1nc(COc2ccccc2)no1)CC1(N2CCOCC2)CCCCC1,"inconclusive: 89.1 µM [inhibitor, partial curve, poor fit]"

row,Compound,Potency
1,COc1cccc(CCC(=O)N2CCC(Cc3nc(-c4ccccc4)no3)CC2)c1,"inconclusive: 50.1 µM [inhibitor, partial curve, poor fit]"
2,O=C(Nc1ccc2c(c1)OCCO2)N1CCCC(CN2CCOCC2)CC1 (stereo not given),inactive
3,O=C(c1cccc(Cl)c1)N1CCC2(CC1)N=C(c1cccc(Br)c1)NO2,"inconclusive: 70.8 µM [inhibitor, single point]"
4,CC(C)CN(CC1CN(C(=O)Nc2cccc(Cl)c2)CCO1)C(=O)c1ccc(F)cc1 (stereo not given),"inconclusive: 50.1 µM [inhibitor, partial curve, poor fit]"
5,COc1ccccc1Nc1ccnc(N2CCCC(C(=O)NCc3cccs3)C2)n1 (stereo not given),active: 31.6 µM
6,Cn1ncc2c(C(=O)NCc3cccc(Cl)c3)cc(-c3ccccc3)nc21,inactive
7,Cc1cc(CN2CCC3(C2)C(=O)N(Cc2ccccc2)c2ccccc23)no1 (stereo not given),"inconclusive: 44.7 µM [inhibitor, partial curve, poor fit]"
8,O=C(NCc1ccccc1)c1ccc2nnc(C3CCCC3)n2c1,active: 79.4 µM
9,COc1ccc(-c2nc(C3CC3)nc3c2CN(C(=O)c2ccccc2OC)CC3)cc1,"inconclusive: 50.1 µM [inhibitor, single point]"
10,CC(=O)Nc1ccc(S(=O)(=O)N[C@H]2C[C@@H](c3nc(-c4ccccc4)no3)N(C)C2)cc1,"inconclusive: 22.4 µM [inhibitor, full curve, poor fit]"
11,CC(C)CN1C(=O)c2ccccc2C(C(=O)Nc2ccccn2)C12CCCC2 (stereo not given),"inconclusive: 44.7 µM [inhibitor, partial curve, poor fit]"
12,Cc1ccc(-c2nnc([C@H]3CCN(Cc4ccc(S(C)(=O)=O)cc4)C3)o2)cc1,"inconclusive: 50.1 µM [inhibitor, partial curve, poor fit]"
13,CCOCC1(C)COc2ccc(C(=O)Nc3ccc(F)c(Cl)c3)cc2N1 (stereo not given),active: 31.6 µM
14,CN1C[C@H](C(=O)NCCOc2ccccc2)C[C@H]1c1cccc(C(F)(F)F)c1,"inconclusive: 79.4 µM [inhibitor, partial curve]"
15,CCOc1ccc2c(n1)CCN(C(=O)CC1CCCC1)C2,"inconclusive: 50.1 µM [inhibitor, partial curve, poor fit]"
16,COc1ccc(C(=O)N[C@@H]2c3ccccc3C3(CCNCC3)[C@H]2OC)cc1C,"inconclusive: 89.1 µM [inhibitor, single point]"
17,O=C(NCc1cc(F)cc(F)c1)C1(c2ccc(Cl)cc2)CCOCC1,"inconclusive: 70.8 µM [inhibitor, single point]"
18,COc1ccc(-c2cc3c(=O)n(CCNC(=O)c4cc(F)cc(F)c4)ccn3n2)cc1,"inconclusive: 39.8 µM [inhibitor, partial curve]"
19,Cc1ccc(C2Cn3nnc(C(=O)N4CCN(C(=O)Cc5ccc(Cl)cc5)CC4)c3CO2)cc1 (stereo not given),inactive
20,Cc1cc(C)cc(-c2ccc(CN3CCCC(NC(=O)Cc4cccc(Cl)c4)C3)cc2)c1 (stereo not given),"inconclusive: 28.2 µM [inhibitor, full curve, poor fit]"
